Assay results reported in PubChem BioAssay (NCATS).
“And” between values parts separate entries of the source, which are not always exact repeats. Identical values can stand only once. This list was built around the results that the source calls inconclusive (neither active nor inactive); the mix of calls is not that of the screen. For part of these data: Where the call is inconclusive, the potency comes from a doubtful curve fit. For part of these data: A note “side channel” means that the fit belongs to a control or component signal, not to the main read-out. The source made the active and inactive calls. Unless noted, the call rests on the fitted dose curve.

Key:
[1] = molecular target: Estrogen receptor (Homo sapiens) (UniProt P03372); assay: qHTS assay for small molecule antagonists of estrogen receptor alpha signaling (AID 588513; active means well fitted curve in the direction sought with a large enough effect in the signal ratio, with a control signal flat, not every such curve was filed as active; inconclusive means small, poorly fitted or top-dose-only effect, or effect the other way, or a change in a side signal; inactive means no such curve, though single readings can be large or run the other way; the % refers to the signal ratio; further: potency means the concentration at half of the fitted maximal effect; on activity, negative = inhibition: on the % scale 0 is the no-effect control and ±100 the full control effect); details: ER-alpha-UAS-bla HEK293, beta-lactamase ratio, antagonist mode; activity, negative = inhibition: at 76.9 µM (top of the series) unless noted
Chain of UniProt P03372 (P03372 whole entry, looked up): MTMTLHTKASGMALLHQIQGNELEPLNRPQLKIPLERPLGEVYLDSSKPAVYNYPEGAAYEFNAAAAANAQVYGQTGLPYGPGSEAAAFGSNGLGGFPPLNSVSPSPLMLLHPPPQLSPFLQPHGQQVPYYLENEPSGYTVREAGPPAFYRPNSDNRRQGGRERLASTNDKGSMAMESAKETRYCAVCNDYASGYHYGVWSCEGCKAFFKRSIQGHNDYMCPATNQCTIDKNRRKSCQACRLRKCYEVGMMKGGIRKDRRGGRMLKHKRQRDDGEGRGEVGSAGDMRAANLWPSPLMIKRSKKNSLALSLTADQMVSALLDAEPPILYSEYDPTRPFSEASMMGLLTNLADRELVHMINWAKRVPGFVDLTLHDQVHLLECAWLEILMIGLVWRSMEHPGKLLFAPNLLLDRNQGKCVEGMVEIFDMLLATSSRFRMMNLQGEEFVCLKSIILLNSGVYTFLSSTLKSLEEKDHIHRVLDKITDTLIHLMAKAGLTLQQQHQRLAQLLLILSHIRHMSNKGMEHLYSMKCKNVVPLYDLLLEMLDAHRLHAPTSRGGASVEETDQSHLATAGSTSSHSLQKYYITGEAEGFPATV
How it was run: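 ER-alpha-UAS-bla GripTite HEK 293 cells in medium with 2% charcoal/dextran-treated FBS were preincubated 4 h at 37 C, dosed with compound (1:2 titration), stimulated with 0.5nM 17-beta-estradiol for 18 h, then read by CCF4 beta-lactamase fluorescence.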

[2] = molecular target: Estrogen receptor (Homo sapiens) (UniProt P03372); assay: qHTS assay for small molecule agonists of estrogen receptor alpha signaling (AID 588514); details: ER-alpha-UAS-bla HEK293, beta-lactamase ratio, 18 h; activation: at 76.8 µM (top of the series), percent of full estradiol response, vehicle zero; further: nearly all actives have a fitted effect of over 70% in size; further: potency means the concentration at half of the fitted maximal effect;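 on activation: 0% = vehicle only and 100% = reference agonist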
How it was run: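 Efficacy is expressed against 20 nM 17-beta-estradiol (100%) and DMSO basal (0%); EC50 from Hill equation. Assay: beta-lactamase reporter in ER-alpha-UAS-bla HEK 293 cells, 18 h compound incubation, CCF4 detection.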

[3] = molecular target: Glucocorticoid receptor (Homo sapiens) (UniProt P04150); assay: qHTS assay for small molecule antagonists of glucocorticoid receptor signaling (AID 588533; active means well fitted inhibition curve with a large enough effect in the signal ratio, with a control signal flat, not every such curve was filed as active; inconclusive means small, poorly fitted or top-dose-only effect, or effect the other way, or a change in a side signal; the % refers to the signal ratio;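 further: cells stimulated with 2 nM dexamethasone as agonist; potency means the concentration at half of the fitted maximal effect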); details: HeLa MMTV-bla, GRE beta-lactamase ratio, antagonist mode, 18 h; activity change, negative = inhibition: at 76.8 µM (top of the series) unless noted
[4] = molecular target: Peroxisome proliferator-activated receptor delta (Homo sapiens) (UniProt Q03181); assay: qHTS assay for small molecule agonists of peroxisome proliferator-activated receptor delta signaling (AID 588534); details: HEK293T PPARdelta-UAS-bla, beta-lactamase ratio, 18 h; activation: at 76.7 µM (top of the series); further: potency means the concentration at half of the fitted maximal effect
Chain of UniProt Q03181 (Q03181 whole entry, looked up): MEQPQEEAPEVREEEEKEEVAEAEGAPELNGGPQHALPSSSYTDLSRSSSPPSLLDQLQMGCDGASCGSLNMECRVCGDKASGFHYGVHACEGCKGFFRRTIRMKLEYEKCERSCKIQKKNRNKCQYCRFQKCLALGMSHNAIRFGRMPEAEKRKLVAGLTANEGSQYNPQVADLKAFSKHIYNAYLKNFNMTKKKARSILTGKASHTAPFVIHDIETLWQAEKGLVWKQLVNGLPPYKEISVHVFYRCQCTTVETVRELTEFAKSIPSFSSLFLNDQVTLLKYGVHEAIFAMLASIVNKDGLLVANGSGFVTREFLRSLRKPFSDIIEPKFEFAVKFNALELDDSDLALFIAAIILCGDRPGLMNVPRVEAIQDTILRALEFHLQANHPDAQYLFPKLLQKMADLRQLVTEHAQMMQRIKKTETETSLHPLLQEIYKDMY
How it was run: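 Agonist-mode qHTS; reporter cells, 5 hrs 37 C pre-incubation; compound titration, 18 hrs 37 C; CCF4 dye, 2 hrs RT; fluorescence read. EC50/efficacy via Hill fit.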

[5] = molecular target: Peroxisome proliferator-activated receptor delta (Homo sapiens) (UniProt Q03181); assay: qHTS assay for small molecule antagonists of peroxisome proliferator-activated receptor delta signaling (AID 588535; active means well fitted inhibition curve with a large enough effect in the signal ratio, with a control signal flat, not every such curve was filed as active; inconclusive means small, poorly fitted or top-dose-only effect, or effect the other way, or a change in a side signal; inactive means no such curve, though single readings can be large or run the other way; the % refers to the signal ratio; further: potency means the concentration at half of the fitted maximal effect); details: HEK293T PPARd-UAS-bla, beta-lactamase FRET ratio, 18 h; activity change, negative = inhibition: at 76.7 µM (top of the series) unless noted
How it was run: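 Fluorescence from CCF4-loaded GeneBLAzer PPAR-delta-UAS-bla HEK293T cells (2 hrs RT loading) quantified reporter inhibition after an 18 hr, 37 C compound exposure across a titration.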

[6] = molecular target: Peroxisome proliferator-activated receptor gamma (Homo sapiens) (UniProt P37231); assay: qHTS assay for small molecule agonists of peroxisome proliferator-activated receptor gamma signaling (AID 588536; active means well fitted curve in the direction sought with a large enough effect in the signal ratio, with a control signal flat, not every such curve was filed as active; inconclusive means small, poorly fitted or top-dose-only effect, or effect the other way, or a change in a side signal; inactive means no such curve, though single readings can be large or run the other way; the % refers to the signal ratio; further: potency means the concentration at half of the fitted maximal effect;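 on activation: 0% = DMSO basal wells and 100% = rosiglitazone at 2 µM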); details: HEK293 PPARg-UAS-bla, beta-lactamase ratio, 16 h; activation: at 76.7 µM (top of the series), percent of rosiglitazone response, DMSO as zero unless noted
How it was run: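 This is an agonist-mode beta-lactamase reporter assay in HEK293 PPAR-gamma-UAS-bla cells with 1% charcoal/dextran FBS. Compound titrations ran 16 h at 37 C before CCF4 detection. EC50 and efficacy are Hill fits scaled to 2 uM rosiglitazone (100%) and DMSO basal.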

[7] = molecular target: Peroxisome proliferator-activated receptor gamma (Homo sapiens) (UniProt P37231); assay: qHTS assay for small molecule antagonists of peroxisome proliferator-activated receptor gamma signaling (AID 588537; active means well fitted inhibition curve with a large enough effect in the signal ratio, with a control signal flat, not every such curve was filed as active; inconclusive means small, poorly fitted or top-dose-only effect, or effect the other way, or a change in a side signal; the % refers to the signal ratio; further: potency means the concentration at half of the fitted maximal effect;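 further: reporter cells co-stimulated with 50 nM rosiglitazone agonist during compound treatment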; on activity, negative = inhibition: % of control where 0% means no effect); details: HEK293 PPARg-UAS-bla, beta-lactamase ratio, antagonist mode; activity, negative = inhibition: at 76.8 µM (top of the series)
How it was run: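 Fluorescence at 460 and 530 nm (405 nm excitation) reported beta-lactamase cleavage of CCF4 after 2 h room-temperature loading. HEK293 reporter cells in 1% charcoal/dextran-treated FBS had received compound and rosiglitazone for 16 h.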

[8] = molecular target: Vitamin D3 receptor (Homo sapiens) (UniProt P11473); assay: qHTS assay for small molecule antagonists of vitamin D receptor signaling (AID 588541); details: HEK293T VDR-UAS-bla, beta-lactamase ratio, antagonist mode; activity change, negative = inhibition: at 76.7 µM (top of the series); further: potency means the concentration at half of the fitted maximal effect;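 on activity change, negative = inhibition: receptor activated by calcitriol during compound treatment; on the % scale 0 is the no-effect control and ±100 the full control effect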
[9] = molecular target: Vitamin D3 receptor (Homo sapiens) (UniProt P11473); assay: qHTS assay for small molecule agonists of vitamin D receptor signaling (AID 588543); details: HEK293T VDR-UAS-bla, beta-lactamase ratio, 16 h; activation: at 76.8 µM (top of the series); further: potency means the concentration at half of the fitted maximal effect
How it was run: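 GeneBLAzer VDR-UAS-bla HEK293T cells in 2% charcoal-stripped FBS medium were dosed with compound titrations for 16 h at 37 °C; CCF4 β-lactamase readout (405 nm ex, 460/530 nm em). EC50 and efficacy from Hill fits, normalized to 50 nM calcitriol (100%) and DMSO (0%).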

[10] = molecular target: Retinoic acid receptor RXR-alpha (Homo sapiens) (UniProt P19793); assay: qHTS assay for small molecule agonists of retinoid X receptor alpha signaling (AID 588544); details: HEK293T RXRa-UAS-bla, beta-lactamase reporter, 18 h; activation: at 76.7 µM (top of the series) unless noted; further: potency means the concentration at half of the fitted maximal effect
Chain of UniProt P19793 (P19793 whole entry, looked up): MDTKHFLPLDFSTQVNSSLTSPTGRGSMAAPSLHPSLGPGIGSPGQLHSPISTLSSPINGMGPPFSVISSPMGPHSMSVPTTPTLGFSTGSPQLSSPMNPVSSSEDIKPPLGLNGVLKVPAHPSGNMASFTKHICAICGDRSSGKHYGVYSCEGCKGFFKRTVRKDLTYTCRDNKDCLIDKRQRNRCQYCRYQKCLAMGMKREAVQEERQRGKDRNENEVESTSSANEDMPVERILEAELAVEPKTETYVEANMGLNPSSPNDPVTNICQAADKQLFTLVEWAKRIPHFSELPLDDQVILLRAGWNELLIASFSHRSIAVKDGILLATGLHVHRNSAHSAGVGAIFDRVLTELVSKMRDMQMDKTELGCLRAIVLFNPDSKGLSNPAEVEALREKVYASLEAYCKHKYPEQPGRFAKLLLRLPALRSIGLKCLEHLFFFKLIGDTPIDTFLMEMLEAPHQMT

[11] = molecular target: Retinoic acid receptor RXR-alpha (Homo sapiens) (UniProt P19793); assay: qHTS assay for small molecule antagonists of retinoid X receptor alpha signaling (AID 588546; active means well fitted inhibition curve with a large enough effect in the signal ratio, with a control signal flat, not every such curve was filed as active; inconclusive means small, poorly fitted or top-dose-only effect, or effect the other way, or a change in a side signal; inactive means no such curve, though single readings can be large or run the other way; the % refers to the signal ratio; further: potency means the concentration at half of the fitted maximal effect); details: HEK293T RXRa-UAS-bla, beta-lactamase ratio, antagonist mode
How it was run: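 Beta-lactamase reporter inhibition, read as CCF4 fluorescence ratio (ex 405, em 460/530 nm) after 2 h at RT. HEK293T UAS-bla cells, 2500/well, were stimulated with 9-cis-RA at 500 or 100 nM final alongside test compound for 18 h at 37 C.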

[12] = molecular target: Thyroid hormone receptor beta (Homo sapiens) (UniProt P10828); assay: qHTS assay for small molecule antagonists of thyroid hormone receptor beta signaling (AID 588547; active means well fitted inhibition curve with a large enough effect in the signal ratio, with a control signal flat, not every such curve was filed as active; inconclusive means small, poorly fitted or top-dose-only effect, or effect the other way, or a change in a side signal; the % refers to the signal ratio; further: potency means the concentration at half of the fitted maximal effect;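 on activity change % (negative = inhibition): cells stimulated with 0.4 nM T3 agonist during compound exposure; on the % scale 0 is the no-effect control and ±100 the full control effect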); details: TR-UAS-bla HEK293, beta-lactamase ratio, antagonist mode, 18 h
Chain of UniProt P10828 (P10828 whole entry, looked up): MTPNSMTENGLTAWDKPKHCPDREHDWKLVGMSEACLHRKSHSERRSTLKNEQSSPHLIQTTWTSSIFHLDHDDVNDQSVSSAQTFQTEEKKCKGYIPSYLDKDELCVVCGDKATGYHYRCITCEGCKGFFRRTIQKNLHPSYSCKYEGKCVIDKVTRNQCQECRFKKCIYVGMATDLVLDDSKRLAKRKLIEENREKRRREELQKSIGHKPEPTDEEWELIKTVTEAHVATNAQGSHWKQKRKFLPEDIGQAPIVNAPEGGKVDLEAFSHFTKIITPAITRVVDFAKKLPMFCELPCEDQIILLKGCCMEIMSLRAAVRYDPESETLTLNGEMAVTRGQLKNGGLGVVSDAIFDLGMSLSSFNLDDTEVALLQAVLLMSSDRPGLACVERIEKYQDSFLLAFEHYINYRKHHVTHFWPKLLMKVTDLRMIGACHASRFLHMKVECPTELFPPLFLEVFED
How it was run: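 TR-UAS-bla GripTite HEK293 cells in 2% charcoal/dextran FBS medium; compounds 0.59 nM to 92 uM with T3 at 0.4nM final, 18 h at 37 C. Beta-lactamase read by CCF4 fluorescence (460/530 nm); Hill fits gave IC50 and efficacy.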

[13] = qHTS assay for small molecule agonists of the antioxidant response element (ARE) signaling pathway (AID 651741; active means well fitted activation curve with a large enough effect in the signal ratio; inconclusive means small, poorly fitted or top-dose-only effect, or effect the other way, or a change in a side signal; the % refers to the signal ratio; further: potency means the concentration at half of the fitted maximal effect); details: HepG2 ARE-bla reporter, beta-lactamase FRET ratio, 16 h; activation: at 96 µM (top of the series) unless noted
How it was run: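 Stably integrated ARE-beta-lactamase reporter HepG2 cells; 16 h compound incubation, 37 C; LiveBLAzer FRET substrate 2 h at room temperature; fluorescence intensity.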

[14] = qHTS assay for small molecule agonists of the antioxidant response element (ARE) signaling pathway measured by Nrf2-dependant transcriptional activity - cell viability counter screen (AID 720653; active means well fitted curve in the direction sought with a large enough effect in the repeat runs; inconclusive means weak or mixed curves; inactive means no such curve, though single readings can be large; an effect the other way counts as inactive or inconclusive; further: potency means the concentration at half of the fitted maximal effect); details: ARE-bla HepG2 viability, CellTiter-Glo ATP luminescence, 16 h; max response: active compounds read low
How it was run: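 ARE-bla HepG2 cells treated with compounds for 16 h at 37C; this counter screen measures viability as intracellular ATP by CellTiter-Glo luminescence after 30 min at room temperature.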

[15] = Cellular Toxicity (caspase-3) MRC-5 (AID 659; active means well fitted curve in the direction sought with a large enough effect; inconclusive means small, poorly fitted or top-dose-only effect, or another doubt; inactive means no such curve, though single readings can be large; an effect the other way counts as inactive or inconclusive); details: MRC-5 cells, luminescence, normalized: DMSO 0%, 10 µM staurosporine 100%; at 91.7 µM (top of the series)
How it was run: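 MRC-5 fibroblasts, 1500/well; 16 h cpd, 37 °C; Caspase-Glo 3/7, 1 h RT; lumi read. Norm: DMSO = 0%, 10 uM staurosporine = 100%. Hill-fit AC50 from qHTS conc-response.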

[16] = Cell Viability - LYMP2-015 (AID 971; active means well fitted curve in the direction sought with a large enough effect; inconclusive means small, poorly fitted or top-dose-only effect, or another doubt; inactive means no such curve, though single readings can be large; an effect the other way counts as inactive or inconclusive;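 further: cells exposed to compound for 24 h; 0% = DMSO only and full effect = 92 µM tetraoctylammonium bromide; nearly all actives have a fitted effect of over 55% in size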); details: LYMP2-015 lymphoblastoid cell viability; activity change, negative = lower viability: at 92.2 µM (top of the series)
How it was run: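 Cells are seeded at 2500 per well and incubated 5 hr at 37 C. Compounds are added across a concentration series for 24 hr at 37 C. CellTiter-Glo is added, and luminescence is read after 30 min at room temperature.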

[17] = qHTS assay to identify small molecules that stimulate interleukin-8 (IL-8) secretion (AID 651758; active means well fitted activation curve with a large enough effect in the signal ratio; inconclusive means small, poorly fitted or top-dose-only effect, or effect the other way, or a change in a side signal; the % refers to the signal ratio; further: 0% is about no effect); details: HTRF ratio (665/615); activation: at 92.2 µM (top of the series)
How it was run: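 Compounds are added to THP-1 cells (2000 per well) and left 16 hrs at 37 C. A labeled anti-IL-8 antibody pair is then added, and IL-8 secretion is measured by time-resolved FRET after 1-3 hrs at room temperature.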

[18] = qHTS assay for small molecule antagonists of the retinoid-related orphan receptor gamma (ROR-gamma) signaling pathway - cell viability counter screen (AID 720652; active means well fitted curve in the direction sought with a large enough effect in the repeat runs; inconclusive means weak or mixed curves; inactive means no such curve, though single readings can be large; an effect the other way counts as inactive or inconclusive;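 further: potency means the concentration at half of the fitted maximal effect; compound exposure lasted 16 hr before ATP read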)
How it was run: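 Steps: seed CHO cells bearing TET-inducible ROR and ROR response element-luciferase; rest 5 hr at 37 C; add compound, then doxycycline; incubate 16 hr; add CellTiter-Glo and read luminescence as ATP-based viability.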

[19] = qHTS assay for small molecule activators of the p53 signaling pathway (AID 651743; active means well fitted activation curve with a large enough effect in the signal ratio, not every such curve was filed as active; inconclusive means small, poorly fitted or top-dose-only effect, or a change in a side signal; the % refers to the signal ratio; further: potency means the concentration at half of the fitted maximal effect); details: HCT-116 p53RE-bla, beta-lactamase FRET ratio, 16 h; activation: active compounds read high
How it was run: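 Following 16 hours of compound exposure at 37 C, HCT-116 cells bearing the p53RE-bla reporter were loaded with LiveBLAzer B/G FRET substrate for 2 hours at room temperature and fluorescence intensity was recorded.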

[20] = qHTS assay for cell viability of HEK293 cells (AID 743288; active means well fitted curve in the direction sought with a large enough effect; inconclusive means small, poorly fitted or top-dose-only effect, or another doubt; inactive means no such curve, though single readings can be large; an effect the other way counts as inactive or inconclusive; further: potency means the concentration at half of the fitted maximal effect; nearly all actives have a fitted effect of over 50% in size); details: ATP luminescence (CellTiter-Glo), 18 h; max response: active compounds read low
How it was run: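 After 18 h compound exposure at 37 C, parental HEK293 cells (2,000/well) are lysed with CellTiter-Glo and luminescence is read following 30 min at room temperature.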

[21] = qHTS assay for cell viability of the p53RE-bla HCT-116 cell line (AID 743292; active means well fitted curve in the direction sought with a large enough effect; inconclusive means small, poorly fitted or top-dose-only effect, or another doubt; inactive means no such curve, though single readings can be large; an effect the other way counts as inactive or inconclusive; further: potency means the concentration at half of the fitted maximal effect; nearly all actives have a fitted effect of over 55% in size)
How it was run: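 Quantitative high-throughput format: compounds in DMSO were pinned onto p53RE-bla HCT-116 cells (4,000/well) and incubated 16 h at 37 C. Total intracellular ATP, read by CellTiter-Glo luminescence, reflects viable cell number.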
Tags describe the fitted curve by direction and shape or compound fluorescence and quenching.

CC1COC(Cn2cncn2)(c2ccc(Oc3ccc(Cl)cc3)cc2Cl)O1 (configuration not stated)
active: Potency [11] 39.8 µM | Potency [13] 15.4 µM
inconclusive: Potency [1] 39.8 µM [side channel] | Potency [2] 50.1 µM [side channel, rising, single point] | Potency [3] 7.08 µM [activator, single point] | Potency [4] 31.6 µM [side channel, rising, partial curve] | activity change, negative = inhibition [5] -56.2% | Potency [6] 39.8 µM [inhibitor, partial curve] | activity, negative = inhibition [7] -79.5% | activity change, negative = inhibition [8] -50.6% | Potency [9] 39.8 µM [side channel, rising, partial curve, poor fit] | Potency [10] 28.2 µM [inhibitor, single point] | activity change % (negative = inhibition) [12] -109% | Potency [14] 31.6 µM [cytotoxic, partial curve, poor fit]

O=[N+]([O-])c1cccc2ccccc12
inactive: caspase-3 activation [15] 1.6% | Potency [16] | Potency [2] | Potency [5]
inconclusive: activity, negative = inhibition [1] 19.6% | Potency [13] 42.2 µM [activator, partial curve, poor fit] and 54.5 µM [activator, partial curve] | activation [17] -15.7% | Potency [18] 75 µM [cytotoxic, partial curve, poor fit]

Cc1cc(C2CC2)nc(Nc2ccccc2)n1
inconclusive: activity, negative = inhibition [1] -47.8% | activation [2] -0.208% | Potency [19] 0.0032 µM [side channel, falling, full curve, poor fit] | Potency [20] 50.1 µM [cytotoxic, partial curve, poor fit]

CCC[CH2][Sn]([Cl])([Cl])[CH2]CCC
active: Potency [3] 15.8 µM | Potency [5] 3.98 µM | Potency [11] 3.98 µM | Potency [13] 1.93 µM
inconclusive: Potency [1] 12.6 µM [side channel, rising, partial curve, poor fit] | Potency [2] 50.1 µM [side channel, rising, single point] | Potency [4] 3.98 µM [side channel, rising, full curve, poor fit] | activation [6] -38.5% | Potency [7] 50.1 µM [side channel, rising, partial curve, poor fit] | Potency [8] 10 µM [falling, full curve] | Potency [9] 2.24 µM [side channel, rising, full curve, poor fit] | Potency [10] 1.41 µM [inhibitor, full curve] | Potency [12] 7.94 µM [side channel, rising, full curve, poor fit] | Potency [19] 28.2 µM [cytotoxic, side channel, full curve, poor fit] | Potency [14] 50.1 µM [cytotoxic, partial curve, poor fit] | Potency [21] 50.1 µM [cytotoxic, partial curve, poor fit]
